Measured values taken from the supplement of paper PMC11417369.
The other results are listed elsewhere or left out.

test system: PfSIP2 AP2 domain 1 (GST-tagged); experiment: gcPBM binding intensity (ln(normalized median fluorescence intensity)); higher = stronger DNA binding
How it was run: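 In this array assay, P. falciparum DNA-binding domains with a GST tag, expressed in E. coli, were applied for 1 h to primer-extended double-stranded 36-bp intergenic genomic probes and negative controls on an Agilent 4 × 180k array. Bound protein was visualised with Alexa488 anti-GST antibody at 488 nm. Binding intensity is the highest Masliner-normalised natural-log median intensity across replicate spots of either probe orientation.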

| Sequence | gcPBM binding intensity (ln) |
| --- | --- |
| AAAAGCACCGTTCGTTGTACACTGAAACACTTTTGT [XGTACX_site199] | 7.7 |
| ATAAAATAAAAGGAATGTACTTTTTTTATTGTAATT [XGTACX_site4372] | 7.03 |
| AACAAATTGAAACAATAATTGGAAAAAAAAAAAAAA [CACACA_negctrl_site1145] | 6.84 |
| AACAAATACGGACACACACACACACTAGAAAAAAAA [CACACA_site4442] | 7.43 |
| GTAGACTGAAACCACACACACATATATATATATATT [CACACA_site605] | 7.3 |
| TAATATTTCGCACTGTGTACTGAAATATTTATATCG [XGTACX_site516] | 7.5 |
| ATAATAAGACGATAAGGTACACAAAATGTTAATATA [XGTACX_site6984] | 6.81 |
| AATAATAATAAAAATAAACACACATATATATGTATA [CACACA_site8928] | 6.91 |
| AAAGAAAGAAAGAAAAGTACTTAAACTTTTAAAAAT [XGTACX_site8531] | 6.47 |
| ATTTCTTTTGTTATAGTGCATAATATTTATGTACGT | 8.59 |
| ATATTAATATATAGAAGTACTCACATGTTAATATAA [XGTACX_site7323] | 7.14 |
| TTAAATAAATAAATAACACACATATAAAAATAACGC [CACACA_site3266] | 7.39 |
| TAACTATCATGTATTACACACAATATTTATTATATA [CACACA_site2701] | 7.14 |
| TATTCAAATTTCCACATACACACCTTGTAGATATAT [CACACA_site281] | 7.01 |
| AAGACAAATTTTACATGTACAAATATATTACATATA [XGTACX_site7060] | 7.13 |
| AAGAAAAAAAGCAACACACGTACCAACACAATTATG [CACACA_site3133] | 7.15 |
| AAACAAAATAAATATGAACACACACCGTTATGCCTT [CACACA_site8347] | 6.67 |
| TATTTGTGGATTTTTACACACATTAATATATATATA [CACACA_site3375] | 8.41 |
| AGGAAAATTATGAATGGTACAGAATATATTAGGAGA [XGTACX_site6282] | 7.15 |
| AATAAGTTATTATTTTGTACACATAAATAATACGTT [XGTACX_site814] | 6.95 |
| GCACTAAAAAAATAAACACACAGATTTATATAATAT [CACACA_site1381] | 6.83 |
| AAGGAACTATAATATACACACATAAGTGTACTTATA [CACACA_site7816] | 6.92 |

| Sequence | gcPBM binding intensity (ln) |
| --- | --- |
| AAAAAAACGTAAAAATGTACTTTTTGTATATAACCT [XGTACX_site7950] | 6.99 |
| ATATATGCATATATTTGTACACATTTTTTTACATAA [XGTACX_site4624] | 7.25 |
| TAAAGCGACATTTGGAAAATATATATCCTAGCATTT [CACACA_negctrl_site327] | 6.73 |
| TATTCGTGCAATAGTAGTACACTTAAAAATTATTCA [XGTACX_site269] | 7.53 |
| AAAATACACAGACACACACACATATAAATAAATATT [CACACA_site7871] | 7.07 |
| ATTCGTTATAAAATATGTACATAAATATATATATAT [XGTACX_site2819] | 8.9 |
| TTATAAAATAAACTTACACACATGAAATATTATATT [CACACA_site1945] | 6.76 |
| ACATAGATGCATATCACACATAATAATATTGTCGTA [CACACA_site4819] | 7.02 |
| GTATATTTTTAAAGGTGTACTTTTTTTTTTTTTTTT [XGTACX_site721] | 7.7 |
| ATATAAAACTATAATACACACATAAAATATATTATA [CACACA_site6588] | 7.05 |
| TATATTTATTTATTCTGTACTGAAGACAGTTATGTA [XGTACX_site8857] | 6.95 |
| ATAAATATATATATAGTGCATATAAGCCACCTTCAA [GTGCAC_site9628] | 8.56 |
| TATATAATACAACATGCACACATATATATGTGAATC [CACACA_site8794] | 7.23 |
| CGTAATAAAAACAAATGTACATGACCTGGACAGGTT [XGTACX_site6560] | 7 |
| ACATATGAATATAATACACACTTGTATTATTAATAT [CACACA_site8546] | 6.85 |
| AAAAAAAAAAAAAGAGTGCAAACTATGATAATTTAA | 9.83 |
| TTACCTTTATTGTATGAACACACATAAGCTGATACA [CACACA_site9334] | 7.17 |
| TTAGTTATTAAAAAAAGTACATAAGTAGATATCATC [XGTACX_site8712] | 7.06 |
| TATATATATACATATTGTACATGTGTATATTTTTTT [XGTACX_site361] | 8.05 |
| CCATTTTTTTTATACGCACACGTCATACTTTTAAAA [CACACA_site4988] | 7.68 |
| AAAATTTAATATAATGCACACATAAAAAAAAAAAAA [CACACA_site7923] | 7.17 |
| GAATAATATGGACATACACACATATACATACATATA [CACACA_site2114] | 7.29 |
